No constants are given. Whether binding was seen depends on the method and setting. For some of these results: Binding seen in cells or lysates may run through a third protein. Some entries that bind do so weakly or less than the wild type. For some of these results: Where a sequence is shown, tags or fusion partners need not be part of it.
Experiments:
[1] = biological target: ColQ-Flag (rat collagen Q, ColQ1a, with a Flag epitope after amino acid 26) (rat) (UniProt O35167); assay: co-sedimentation; extracts (0.8 M NaCl, 1% CHAPS) of HEK 293T cells cotransfected with ColQ-Flag and AChE, run on 5 to 20% sucrose gradients with 0.8 M NaCl, 10 mM EDTA, 0.2% Brij-97; fractions assayed for AChE activity; profile not shown
[2] = biological target: ectoLRP4-Myc (extracellular domain of rat LRP4 fused to one Myc tag followed by a 6xHis tag) (rat) (UniProt Q9QYP1); assay: pull-down; ectoLRP4-Myc, ectoLRP6-Myc or ectoMuSK-Myc from conditioned media immobilised on protein G magnetic beads precoated with anti-Myc; incubated with 0.25 Ellman units of sucrose gradient-purified AChE-ColQ (A12) or AChE (G1), 4 °C overnight; bound AChE activity measured by the Ellman method; only the binder purified
[3] = biological target: ColQ-Flag (rat collagen Q, ColQ1a, with a Flag epitope after amino acid 26) (rat) (UniProt O35167); assay: condition: also at a six times higher concentration than ectoLRP4-AP (not shown); ELISA; plate-binding assay (modified ELISA): ColQ-Flag or AdipoQ-Flag from HEK 293T lysates immobilised on anti-Flag precoated wells; AP or AP fusion proteins in conditioned media (10 to 100 nM, equal AP activity) in TBS-0.05% Tween, 1 mM MgCl2, overnight at 4 °C; bound AP activity read with pNPP at …
[4] = biological target: ColQ-Flag (rat collagen Q, ColQ1a, with a Flag epitope after amino acid 26) (rat) (UniProt O35167); assay: SPR; Biacore 3000, CM5 chip with covalently coupled anti-Flag M2; ColQ-Flag from HEK 293T lysates immunocaptured (about 3900 RU); single injection of purified analyte at 750 nM in HBS-EP; reference surface (untransfected lysate) subtracted; response 30 s into dissociation; only the binder purified

Amino acid sequences for entries named in this document (tags omitted). Residues count along the entry.
UniProt O35167, residues 23-458: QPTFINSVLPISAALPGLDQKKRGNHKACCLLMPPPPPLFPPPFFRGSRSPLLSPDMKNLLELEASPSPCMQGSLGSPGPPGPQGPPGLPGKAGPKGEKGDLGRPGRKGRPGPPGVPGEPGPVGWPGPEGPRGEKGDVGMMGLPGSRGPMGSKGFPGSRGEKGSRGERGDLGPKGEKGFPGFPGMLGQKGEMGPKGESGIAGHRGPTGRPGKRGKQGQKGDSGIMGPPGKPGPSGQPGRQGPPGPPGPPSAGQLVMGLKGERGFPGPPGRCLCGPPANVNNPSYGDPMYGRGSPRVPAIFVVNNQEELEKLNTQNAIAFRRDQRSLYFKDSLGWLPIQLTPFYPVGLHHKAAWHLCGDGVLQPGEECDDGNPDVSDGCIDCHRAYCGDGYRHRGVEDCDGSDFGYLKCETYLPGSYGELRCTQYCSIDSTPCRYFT
UniProt Q9QYP1, residues 21-1723: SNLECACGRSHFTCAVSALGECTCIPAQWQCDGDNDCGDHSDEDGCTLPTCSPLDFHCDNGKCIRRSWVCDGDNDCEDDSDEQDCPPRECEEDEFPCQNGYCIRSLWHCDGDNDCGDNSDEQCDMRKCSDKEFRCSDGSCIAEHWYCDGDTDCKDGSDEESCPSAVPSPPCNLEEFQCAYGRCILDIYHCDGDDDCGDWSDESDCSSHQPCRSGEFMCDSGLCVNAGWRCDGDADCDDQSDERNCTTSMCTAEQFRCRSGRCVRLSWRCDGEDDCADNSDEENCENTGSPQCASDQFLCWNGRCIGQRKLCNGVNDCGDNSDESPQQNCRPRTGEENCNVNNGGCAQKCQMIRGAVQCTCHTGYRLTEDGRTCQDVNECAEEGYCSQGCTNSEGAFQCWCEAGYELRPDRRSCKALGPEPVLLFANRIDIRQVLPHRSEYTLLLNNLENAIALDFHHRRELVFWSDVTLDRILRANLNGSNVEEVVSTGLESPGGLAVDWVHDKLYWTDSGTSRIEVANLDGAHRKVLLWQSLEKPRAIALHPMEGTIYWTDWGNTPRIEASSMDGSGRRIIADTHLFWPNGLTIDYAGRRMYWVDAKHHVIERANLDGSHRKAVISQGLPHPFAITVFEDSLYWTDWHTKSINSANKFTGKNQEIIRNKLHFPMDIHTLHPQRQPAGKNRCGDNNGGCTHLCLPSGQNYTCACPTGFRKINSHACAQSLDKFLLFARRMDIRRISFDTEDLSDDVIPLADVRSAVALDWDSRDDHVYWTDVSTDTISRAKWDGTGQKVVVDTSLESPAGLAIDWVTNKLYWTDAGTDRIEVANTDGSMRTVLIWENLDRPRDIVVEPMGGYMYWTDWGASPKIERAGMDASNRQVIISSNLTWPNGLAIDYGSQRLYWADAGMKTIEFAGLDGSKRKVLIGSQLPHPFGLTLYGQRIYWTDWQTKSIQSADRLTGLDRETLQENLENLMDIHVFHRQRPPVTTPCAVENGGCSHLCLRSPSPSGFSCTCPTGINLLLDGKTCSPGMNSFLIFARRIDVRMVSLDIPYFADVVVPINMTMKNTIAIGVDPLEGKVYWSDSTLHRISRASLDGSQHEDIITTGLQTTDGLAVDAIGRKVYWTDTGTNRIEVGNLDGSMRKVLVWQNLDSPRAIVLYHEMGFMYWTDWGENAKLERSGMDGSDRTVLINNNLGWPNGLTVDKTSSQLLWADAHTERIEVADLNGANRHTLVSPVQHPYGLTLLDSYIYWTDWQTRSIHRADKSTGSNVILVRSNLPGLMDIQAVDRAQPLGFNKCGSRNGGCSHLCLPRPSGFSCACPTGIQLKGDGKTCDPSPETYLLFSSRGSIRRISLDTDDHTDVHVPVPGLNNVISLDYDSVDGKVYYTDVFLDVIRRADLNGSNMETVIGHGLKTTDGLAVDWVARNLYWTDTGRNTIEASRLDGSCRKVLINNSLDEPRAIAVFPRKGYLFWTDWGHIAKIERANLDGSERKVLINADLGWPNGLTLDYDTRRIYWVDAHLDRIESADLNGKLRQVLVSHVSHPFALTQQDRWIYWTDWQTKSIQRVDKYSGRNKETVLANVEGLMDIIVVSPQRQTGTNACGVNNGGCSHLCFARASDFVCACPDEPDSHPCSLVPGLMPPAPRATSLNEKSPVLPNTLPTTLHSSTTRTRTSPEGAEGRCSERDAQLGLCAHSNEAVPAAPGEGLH

B1: AChE globular G1 forms (monomeric, ColQ-free acetylcholinesterase) (enzyme, UniProt P37136 32-614)
chain: EGREDPQLLVRVRGGQLRGIRLKAPGGPVSAFLGIPFAEPPVGSRRFMPPEPKRPWSGILDATTFQNVCYQYVDTLYPGFEGTEMWNPNRELSEDCLYLNVWTPYPRPTSPTPVLIWIYGGGFYSGASSLDVYDGRFLAQVEGTVLVSMNYRVGTFGFLALPGSREAPGNVGLLDQRLALQWVQENIAAFGGDPMSVTLFGESAGAASVGMHILSLPSRSLFHRAVLQSGTPNGPWATVSAGEARRRATLLARLVGCPPGGAGGNDTELISCLRTRPAQDLVDHEWHVLPQESIFRFSFVPVVDGDFLSDTPDALINTGDFQDLQVLVGVVKDEGSYFLVYGVPGFSKDNESLISRAQFLAGVRIGVPQASDLAAEAVVLHYTDWLHPEDPAHLRDAMSAVVGDHNVVCPVAQLAGRLAAQGARVYAYIFEHRASTLTWPLWMGVPHGYEIEFIFGLPLDPSLNYTVEERIFAQRLMQYWTNFARTGDPNDPRDSKSPRWPPYTTAAQQYVSLNLKPLEVRRGLRAQTCAFWNRFLPKLLSATDTLDEAERQWKAEFHRWSSYMVHWKNQFDHYSKQERCSDL
- binding [1]: binds
- binding [2]: no binding (tested: 0.25 Ellman unit)

B2: ectoMuSK-AP (rat MuSK ectodomain fused to alkaline phosphatase) (domain or fragment, UniProt Q62838 22-494)
chain: EKLPKAPVITTPLETVDALVEEVATFMCAVESYPQPEISWTRNKILIKLFDTRYSIRENGQLLTILSVEDSDDGIYCCTANNGVGGAVESCGALQVKMKPKITRPPINVKIIEGLKAVLPCTTMGNPKPSVSWIKGDSALRENSRIAVLESGSLRIHNVQKEDAGQYRCVAKNSLGTAYSKLVKLEVEVFARILRAPESHNVTFGSFVTLRCTAIGMPVPTISWIENGNAVSSGSIQENVKDRVIDSRLQLFITKPGLYTCIATNKHGEKFSTAKAAATVSIAEWSKSQKESKGYCAQYRGEVCDAVLVKDSLVFFNTSYPDPEEAQELLIHTAWNELKAVSPLCRPAAEALLCNHLFQECSPGVLPTPMPICREYCLAVKELFCAKEWLAMEGKTHRGLYRSGMHFLPVPECSKLPSMHQDPTACTRLPYLDYKKENITTFPSITSSKPSVDIPNLPASTSSFAVSPAYSMT
- binding [3]: no binding

B3: purified recombinant mouse ectoMuSK Fc Chimera (R&D Systems) (Fc fusion, UniProt Q61006 22-494)
chain: EKLPKAPVITTPLETVDALVEEVATFMCAVESYPQPEISWTRNKILIKLFDTRYSIRENGQLLTILSVEDSDDGIYCCIANNGVGGAVESCGALQVKMKPKITRPPINVKIIEGLKAVLPCTTMGNPKPSVSWIKGDNALRENSRIAVLESGSLRIHNVQKEDAGQYRCVAKNSLGTAYSKLVKLEVEVFARILRAPESHNVTFGSFVTLRCTAIGIPVPTISWIENGNAVSSGSIQESVKDRVIDSRLQLFITKPGLYTCIATNKHGEKFSTAKAAATVSIAEWSKSQKDSQGYCAQYRGEVCDAVLAKDALVFFNTSYRDPEDAQELLIHTAWNELKAVSPLCRPAAEALLCNHLFQECSPGVVPTPMPICREYCLAVKELFCAKEWQAMEGKAHRGLYRSGMHLLPVPECSKLPSMHRDPTACTRLPYLDYKKENITTFPSITSSRPSADIPNLPASTSSFAVSPAYSMT
- binding [4]: no binding (tested: 750 nM)
